Our source for the binding values is article PMC4538844.

The chains behind the UniProt entries cited, without tags or fusion partners.
UniProt Q99755: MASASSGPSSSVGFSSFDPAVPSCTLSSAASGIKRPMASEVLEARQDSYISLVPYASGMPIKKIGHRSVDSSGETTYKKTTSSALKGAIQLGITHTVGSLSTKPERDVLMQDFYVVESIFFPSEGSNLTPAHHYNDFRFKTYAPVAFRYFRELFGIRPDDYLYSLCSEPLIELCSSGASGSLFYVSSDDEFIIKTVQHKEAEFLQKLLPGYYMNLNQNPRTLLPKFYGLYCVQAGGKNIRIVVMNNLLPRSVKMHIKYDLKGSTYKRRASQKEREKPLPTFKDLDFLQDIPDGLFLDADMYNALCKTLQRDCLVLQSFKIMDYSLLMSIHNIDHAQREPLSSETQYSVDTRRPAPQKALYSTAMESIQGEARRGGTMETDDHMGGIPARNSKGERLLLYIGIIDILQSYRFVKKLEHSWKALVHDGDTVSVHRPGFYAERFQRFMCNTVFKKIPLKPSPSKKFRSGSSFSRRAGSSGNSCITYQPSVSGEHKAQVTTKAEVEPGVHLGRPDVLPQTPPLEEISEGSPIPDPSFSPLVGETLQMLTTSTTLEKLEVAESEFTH

Substitutions are numbered along the chain they refer to. Results are given in words; binding and its absence hold for the method and conditions named. Binding seen in cells or lysates may run through a third protein. Some entries that bind do so weakly or less than the wild type. Sequences can lack the tags named with a protein.

In experiment [1] the target is T1, FLAG-Star-PAP^WT (human) (UniProt Q9H6E5).
T1 sequence: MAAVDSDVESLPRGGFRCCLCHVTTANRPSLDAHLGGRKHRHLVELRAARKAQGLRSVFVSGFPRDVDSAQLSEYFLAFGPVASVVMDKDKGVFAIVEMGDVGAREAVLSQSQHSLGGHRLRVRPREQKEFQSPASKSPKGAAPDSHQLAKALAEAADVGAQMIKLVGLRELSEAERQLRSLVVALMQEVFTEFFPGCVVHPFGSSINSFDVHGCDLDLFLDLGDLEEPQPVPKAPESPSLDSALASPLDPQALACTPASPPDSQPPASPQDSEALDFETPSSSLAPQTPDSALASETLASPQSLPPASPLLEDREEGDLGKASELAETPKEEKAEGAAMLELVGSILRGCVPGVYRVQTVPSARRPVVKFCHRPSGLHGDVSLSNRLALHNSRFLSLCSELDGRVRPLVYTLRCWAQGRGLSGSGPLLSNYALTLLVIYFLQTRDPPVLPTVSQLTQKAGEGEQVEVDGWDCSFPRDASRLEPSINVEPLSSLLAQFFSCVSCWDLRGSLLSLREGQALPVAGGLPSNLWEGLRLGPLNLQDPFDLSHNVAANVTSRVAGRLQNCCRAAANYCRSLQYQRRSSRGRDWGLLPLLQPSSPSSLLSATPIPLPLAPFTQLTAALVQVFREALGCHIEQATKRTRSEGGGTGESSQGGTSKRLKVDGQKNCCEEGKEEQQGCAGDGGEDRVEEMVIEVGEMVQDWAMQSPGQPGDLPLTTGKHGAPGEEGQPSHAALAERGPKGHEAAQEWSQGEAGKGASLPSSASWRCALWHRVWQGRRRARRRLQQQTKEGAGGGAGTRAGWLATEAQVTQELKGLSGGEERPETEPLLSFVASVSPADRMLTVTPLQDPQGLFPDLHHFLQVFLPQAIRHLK
Kind of experiment: co-IP; IP as in Figure 2D from HEK 293 cells after knockdown of CKIα.

For experiment [2], the target named is T1, FLAG-Star-PAP^WT (human). The experiment in a line: condition: only cells treated with the CKI inhibitor CKI7; co-IP; IP as in Figure 2D from HEK 293 cells treated with the CKI inhibitor CKI7 (100 μM, 3 h).
Experiment [3] has as its target T2, FLAG-Star-PAP^ΔZF (human) (UniProt Q9H6E5).
T2 sequence: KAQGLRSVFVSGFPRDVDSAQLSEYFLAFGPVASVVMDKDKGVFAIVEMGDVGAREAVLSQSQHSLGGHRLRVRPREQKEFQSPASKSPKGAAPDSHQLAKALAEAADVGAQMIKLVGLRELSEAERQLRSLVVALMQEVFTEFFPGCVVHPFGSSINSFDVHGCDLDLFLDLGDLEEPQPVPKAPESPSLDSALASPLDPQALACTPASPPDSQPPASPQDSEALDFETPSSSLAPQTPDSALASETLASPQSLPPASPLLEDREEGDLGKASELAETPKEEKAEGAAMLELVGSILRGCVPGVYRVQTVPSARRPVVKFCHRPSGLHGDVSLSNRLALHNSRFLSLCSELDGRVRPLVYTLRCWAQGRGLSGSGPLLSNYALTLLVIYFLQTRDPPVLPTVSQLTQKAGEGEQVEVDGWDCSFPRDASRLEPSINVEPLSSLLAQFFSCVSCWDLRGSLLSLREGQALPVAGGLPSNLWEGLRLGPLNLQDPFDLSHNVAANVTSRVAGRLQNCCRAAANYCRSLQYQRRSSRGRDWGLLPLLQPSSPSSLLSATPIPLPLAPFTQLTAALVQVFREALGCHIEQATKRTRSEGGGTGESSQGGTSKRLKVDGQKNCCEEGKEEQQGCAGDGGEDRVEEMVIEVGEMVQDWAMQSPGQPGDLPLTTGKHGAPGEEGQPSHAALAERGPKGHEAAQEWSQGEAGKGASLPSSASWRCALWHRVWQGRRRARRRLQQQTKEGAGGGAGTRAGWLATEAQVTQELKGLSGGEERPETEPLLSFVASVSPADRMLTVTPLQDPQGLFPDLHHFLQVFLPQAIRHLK
The experiment in a line: co-IP; anti-FLAG IP from lysates of HEK 293 cells with transiently expressed FLAG-Star-PAP forms, blots for associated endogenous proteins; buffer A (100 mM KCl, 5 mM EDTA, 5% NP-40, RNase A); also after tBHQ or DMSO treatment, control siRNA.

Experiment [4] concerns the target T3, FLAG-Star-PAP^S6E (human) (UniProt Q9H6E5).
T3 sequence: T1 sequence with S6E
The experiment is described as above.

For the substance “PIPKIα (endogenous) (from UniProt Q99755 1-562) (enzyme)”, the binding entry was “no binding (condition: after knockdown of CKIα)” in experiment [1], “no binding” in experiment [2], “no binding” in experiment [3] and “binds” in experiment [4].
